Among the data in ChEMBL document CHEMBL5052851, “Mettl3 modulators” (2021) are IC50 values, retold here.

Experiment [1] deals with T1, N6-adenosine-methyltransferase catalytic subunit (Homo sapiens, UniProt Q86U44). Briefly: Inhibition of METTL3 (unknown origin) using UCUGGACUAAA-biotin and 3H-SAM as substrates preincubated for 5 mins followed by substrate addition incubated for 30 mins by TopCount scintillation counting method.
For experiment [2], the system named is MOLM-13. Briefly: Antiproliferative activity against human MOLM-13 cells after 48 hrs by Cell Titer-Glo assay. The class given is functional, cell-based. Conditions: MOLM-13, 48 h. For orientation: ATP-based viability assays read luminescence as a measure of living cells.
Experiment [3] concerns MOLM-13. Briefly: Antiproliferative activity against human MOLM-13 cells after 96 hrs by Cell Titer-Glo assay. The format is functional, cell-based. Conditions: MOLM-13, 96 h.
Experiment [4] addresses T1, N6-adenosine-methyltransferase catalytic subunit. The experiment in a line: Inhibition of METTL3-mediated m6A methylation in human MOLM-13 cells assessed as reduction in mRNA level measured after 24 hrs by LC-MS/MS analysis. The class given is cell-based.
A short description of experiment [5]: Inhibition of METTL16 (unknown origin) using CGAUACAGAGAAGAUUAGCAUACGCAAAUUCGUGAAGCG-biotin and SAM as substrates preincubated for 5 mins followed by substrate addition incubated for 220 mins by TopCount scintillation counting method. Further details: species or system Homo sapiens.

Broadly, the IC50 is the concentration needed to halve the response being measured.

T1 sequence (Q86U44 whole entry): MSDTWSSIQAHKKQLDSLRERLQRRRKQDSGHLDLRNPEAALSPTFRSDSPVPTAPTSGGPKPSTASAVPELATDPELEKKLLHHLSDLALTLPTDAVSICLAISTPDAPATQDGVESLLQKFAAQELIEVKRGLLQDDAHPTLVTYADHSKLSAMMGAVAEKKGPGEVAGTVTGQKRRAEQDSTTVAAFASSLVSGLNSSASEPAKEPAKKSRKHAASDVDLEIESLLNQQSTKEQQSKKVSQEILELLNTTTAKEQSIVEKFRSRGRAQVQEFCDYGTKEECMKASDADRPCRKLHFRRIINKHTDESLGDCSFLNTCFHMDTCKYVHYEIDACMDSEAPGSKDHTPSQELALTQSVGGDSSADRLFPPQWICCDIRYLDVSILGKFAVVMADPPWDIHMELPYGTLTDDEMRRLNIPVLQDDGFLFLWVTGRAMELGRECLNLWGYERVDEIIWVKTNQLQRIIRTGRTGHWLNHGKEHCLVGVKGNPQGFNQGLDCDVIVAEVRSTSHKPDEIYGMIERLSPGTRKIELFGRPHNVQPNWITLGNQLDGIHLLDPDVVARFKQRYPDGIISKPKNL

In the case of `CNc1ccc2ccc(OCc3cc(CO)cc(-n4ccc5c(N)ncnc54)c3)cc2n1`, the IC50 in experiment [1] is under 0.01 µM; in experiment [2], at least 10 µM; in experiment [3], 1 µM.
Turning to `Nc1ncnc2c1c(Cl)cn2-c1cncc(COc2ccc3ccc(N4CCC4)nc3c2)c1`, the IC50 in experiment [1] was under 0.01 µM; in experiment [2], 1 µM; in experiment [4], at least 10 µM; in experiment [5] it was at least 1 µM.
Consider `CNc1ccc2ccc(OCc3cncc(-n4cc([C@@H]5CCCO5)c5c(N)ncnc54)c3)cc2n1`, for which the IC50 in experiment [1] is under 0.01 µM; in experiment [4], under 1 µM; in experiment [5] it was at least 1 µM; in experiment [3] it was 1 µM.
The matching figures for `Nc1ncnc2c1c(C1CCCO1)cn2-c1cncc(CCc2ccc3ccc(N4CCC4)nc3c2)c1` (centres undefined): under 0.01 µM, 1 µM, at least 1 µM and 1 µM.
Take `CNc1ccc2ccc(OCc3cncc(-n4cc(C5CCCC5)c5c(N)ncnc54)c3)cc2n1`: the IC50 in experiment [1] was under 0.01 µM; in experiment [2], under 1 µM; in experiment [4], 1 µM; in experiment [5] it was at least 1 µM; in experiment [3], under 1 µM.
Take `CNc1ccc2ccc(OCc3cncc(-c4c(C)[nH]c5c(N)ncnc45)c3)cc2n1`: the IC50 was under 0.01 µM in experiment [1], at least 10 µM in experiment [2], at least 10 µM in experiment [4] and at least 1 µM in experiment [5].
Consider `CNc1ccc2ccc(OCc3cncc(-n4c(C)cc5c(N)ncnc54)c3)cc2n1`, for which the IC50 was 1 µM in experiment [2], 1 µM in experiment [4] and at least 1 µM in experiment [5].
With `CNc1ccc2ccc(OCc3cncc(-c4c[nH]c5c(N)ncnc45)c3)cc2n1`, the IC50 in experiment [1] was under 0.01 µM; in experiment [2] it was at least 10 µM; in experiment [4], at least 10 µM; in experiment [5], at least 1 µM.
For `CNc1ccc2ccc(CCc3cncc(-n4ccc5c(N)ncnc54)c3)cc2n1`, the IC50 was 1 µM in experiment [2], 1 µM in experiment [4] and at least 1 µM in experiment [5].
On to `CNc1ccc2ccc(CCc3cncc(-n4cc(-c5ccn(C)n5)c5c(N)ncnc54)c3)cc2n1`, for which the IC50 in experiment [1] was under 0.01 µM; in experiment [2], under 1 µM; in experiment [4], under 1 µM.
`CNc1ccc2ccc(OCc3cncc(-n4cc(-c5ccnn5C)c5c(N)ncnc54)c3)cc2n1`: the IC50 in experiment [1] was under 0.01 µM; in experiment [2], under 1 µM; in experiment [4], at least 10 µM; in experiment [5], at least 1 µM.
With `Cc1cc(NCCN(C)C)c2ccc(OCc3cncc(-n4cc(Cl)c5c(N)ncnc54)c3)cc2n1`, the values for the IC50 in experiment [2] and in experiment [5] were under 1 µM and at least 1 µM, respectively.
For the compound `CNc1ccc2ccc(OCc3cc(CO)cc(-c4c[nH]c5c(N)ncnc45)c3)cc2n1`, the concentration for half-maximal inhibition (IC50) in experiment [1] was under 0.01 µM; in experiment [2], at least 10 µM; in experiment [4], at least 10 µM.
On to `CNc1ccc2ccc(OCc3cc(CO)cc(-n4cc(Cl)c5c(N)ncnc54)c3)cc2n1`, for which the IC50 was under 0.01 µM in experiment [1], under 1 µM in experiment [2], at least 10 µM in experiment [4] and at least 1 µM in experiment [5].
On to `CNc1ccc2ccc(OCc3cncc(-n4ccc5c(N)ncnc54)c3)cc2n1`, for which the IC50 in experiment [1] is under 0.01 µM; in experiment [2], under 1 µM; in experiment [4], 1 µM; in experiment [5], at least 1 µM.
In the case of `CNc1ccc2ccc(OCc3cncc(-n4cc(C5CCCC5)c5c(N)ncnc54)n3)cc2n1`, the IC50 in experiment [1] was at most 0.1 µM; in experiment [2], 1 µM; in experiment [4], at least 10 µM.
The matching figures for `CCc1cc(N)c2ccc(OCc3cncc(-n4cc(C5CCCC5)c5c(N)ncnc54)c3)cc2n1`: under 0.01 µM, under 1 µM and 1 µM.
`CNc1ccc2ccc(OCc3cncc(-n4cc(Cl)c5c(N)ncnc54)c3)cc2n1`: the IC50 in experiment [1] is under 0.01 µM; in experiment [2], 1 µM; in experiment [4], 1 µM; in experiment [5], at least 1 µM; in experiment [3], 1 µM.
For `CNc1ccc2ccc(OCc3cncc(-n4cc([C@H]5CCCO5)c5c(N)ncnc54)c3)cc2n1`, the IC50 in experiment [1] is under 0.01 µM; in experiment [4] it was 1 µM; in experiment [5], at least 1 µM; in experiment [3] it was under 1 µM.
Regarding `CC(C)c1cc(N)c2ccc(OCc3cncc(-n4ccc5c(N)ncnc54)c3)cc2n1`, the values for the IC50 in experiment [1], in experiment [2] and in experiment [3] were under 0.01 µM, 1 µM and 1 µM, respectively.
Take `CCc1cc(NCCOC)c2ccc(OCc3cncc(-c4c[nH]c5c(N)ncnc45)c3)cc2n1`: the IC50 in experiment [1] is under 0.01 µM; in experiment [2], at least 10 µM.
Consider `CCNc1ccc2ccc(OCc3cncc(-n4cc(-c5ccn(C)n5)c5c(N)ncnc54)c3)cc2n1`, for which the IC50 in experiment [1] is under 0.01 µM; in experiment [4], 1 µM; in experiment [5], at least 1 µM; in experiment [3], 1 µM.
For the compound `CCc1cc(NCCOC)c2ccc(OCc3cncc(-n4ccc5c(N)ncnc54)c3)cc2n1`, the IC50 in experiment [1] is under 0.01 µM; in experiment [2], 1 µM; in experiment [4], 1 µM.
Consider `CCNc1ccc2ccc(OCc3cncc(-n4cc(Cl)c5c(N)ncnc54)c3)cc2n1`, for which the IC50 in experiment [1] was under 0.01 µM; in experiment [2], 1 µM; in experiment [4], 1 µM; in experiment [5], at least 1 µM.
For the compound `CNc1ccc2cc(CCc3cccc(-n4cc(Cl)c5c(N)ncnc54)c3)ccc2n1`, the IC50 is 1 µM in experiment [2], at least 10 µM in experiment [4], at least 1 µM in experiment [5] and 1 µM in experiment [3].
`CNc1ccc2ccc(OCc3cncc(-n4cc(-c5ccc(C)o5)c5c(N)ncnc54)c3)cc2n1`: the IC50 is under 0.01 µM in experiment [1], 1 µM in experiment [4], at least 1 µM in experiment [5] and 1 µM in experiment [3].
For the compound `CNc1ccc2ccc(OCc3cncc(-n4cc(C)c5c(N)ncnc54)c3)cc2n1`, the IC50 is under 0.01 µM in experiment [1], under 1 µM in experiment [2] and at least 10 µM in experiment [4].
As to `CCc1cc(N2CCNCC2)c2ccc(OCc3cncc(-n4cc(-c5ccn(C)n5)c5c(N)ncnc54)c3)cc2n1`, the IC50 is under 0.01 µM in experiment [1], 1 µM in experiment [4], at least 1 µM in experiment [5] and under 1 µM in experiment [3].
For `CNc1ccc2ccc(OCc3cncc(-n4cc(CC5CC5)c5c(N)ncnc54)c3)cc2n1`, the IC50 in experiment [1] is under 0.01 µM; in experiment [2] it was under 1 µM; in experiment [4] it was 1 µM; in experiment [5], at least 1 µM.
As to `CCc1cc(NCCOC)c2ccc(CCc3cncc(-n4cc(-c5ccn(C)n5)c5c(N)ncnc54)c3)cc2n1`, the IC50 in experiment [1] was under 0.01 µM; in experiment [4], under 1 µM; in experiment [5], at least 1 µM; in experiment [3], under 1 µM.
As for `CNc1ccc2ccc(OCc3cncc(-n4ccc5c(N)ncnc54)n3)cc2n1`, the IC50 in experiment [1] is under 0.01 µM; in experiment [2], 1 µM; in experiment [4] it was 1 µM.
Regarding `CCc1cc(NCCN(C)C)c2ccc(OCc3cncc(-n4ccc5c(N)ncnc54)c3)cc2n1`, the IC50 in experiment [1] is under 0.01 µM; in experiment [2] it was 1 µM.
As to `CCc1cc(N(C)CCN(C)C)c2ccc(CCc3cncc(-n4cc(-c5ccn(C)n5)c5c(N)ncnc54)c3)cc2n1`, the IC50 is under 0.01 µM in experiment [1], 1 µM in experiment [4] and under 1 µM in experiment [3].
Consider `CNc1ccc2ccc(OCc3cccc(-n4cc(Cl)c5c(N)ncnc54)c3)cc2n1`, for which the IC50 in experiment [2] is 1 µM; in experiment [5], at least 1 µM; in experiment [3], 1 µM.
Take `CNc1ccc2ccc(OCc3cncc(-c4cn(C5CCCC5)c5c(N)ncnc45)c3)cc2n1`: the IC50 in experiment [1] was under 0.01 µM; in experiment [2] it was 1 µM; in experiment [4], 1 µM.
As to `CCc1cc(NC)c2ccc(OCc3cncc(-n4cc(-c5ccn(C)n5)c5c(N)ncnc54)c3)cc2n1`, the IC50 in experiment [1] was under 0.01 µM; in experiment [4] it was 1 µM; in experiment [3], under 1 µM.
For `CCc1cc(N)c2ccc(OCc3cncc(-n4ccc5c(N)ncnc54)c3)cc2n1`, the IC50 in experiment [1] was under 0.01 µM; in experiment [2] it was at least 10 µM; in experiment [4] it was at least 10 µM; in experiment [5], at least 1 µM.
